This passage reports IC50, IL-8 secretion by HEKa cells stimulated by a cytokine mixture results from US20230235040A1.

The target of the test is mixture of hu-IL-36α, hu-IL-36β and hu-IL-36γ. Briefly: cell-based or functional assay.

B1: mAb2.10/mAb6_2.7 multispecific common light chain antibody (IgG, knobs-into-holes, N297G) (bispecific antibody)
heavy 1: ELQLQESGPGLVKPSETLSLTCTVSGGSISDSSYYWGWIRQPPGKGLEWIGSIYYTGETYYAPSLKSRVTISVDTSKNQFSLKLSSVTAADTAVYYCARVRYGVGVPRHFDPWGQGTLVTVSSASTKGPSVFPLAPSSKSTSGGTAALGCLVKDYFPEPVTVSWNSGALTSGVHTFPAVLQSSGLYSLSSVVTVPSSSLGTQTYICNVNHKPSNTKVDKKV[left out - human IgG1 Fc with changes]
heavy 2: ELQLQESGPGLVKPSETLSLTCTVSGGSITASNTYWGWIRQPPGKGLEWIGSIDYTGSTYYNPSLKSRVTISVDTSKNQFSLKLSSVTAADTAVYYCATGKYYETYLGFDVWGQGTLVTVSS[left out - human IgG1 constant region with N297G T366W (EU numbers)]
light: ESVLTQPPSVSGAPGQRVTISCTGSSSNIGAHYDVHWYQQLPGTAPKLLIYGNDNRPSGVPDRFSGSKSGTSASLAITGLQAEDEADYYCQSYDYSLSGYVFGGGTKLTVLGQPKAAPSVTLFPPSSEELQANKATLVCLISDFYPGAVTVAWKADSSPVKAGVETTTPSKQSNNKYAASSYLSLTPEQWKSHKSYSCQVTHEGSTVEKTVAPTECS
For the molecule B1, the IC50, IL-8 secretion by HEKa cells stimulated by a cytokine mixture was 1.16 nM.
